Reference: the BET-seq Pho4 binding data (Le et al. 2018)
This is one part of the list. Values were computed here from the reads of four pooled replicates and scatter widely.

Biological target: T1, Pho4 (S. cerevisiae) (UniProt P07270)
T1 sequence: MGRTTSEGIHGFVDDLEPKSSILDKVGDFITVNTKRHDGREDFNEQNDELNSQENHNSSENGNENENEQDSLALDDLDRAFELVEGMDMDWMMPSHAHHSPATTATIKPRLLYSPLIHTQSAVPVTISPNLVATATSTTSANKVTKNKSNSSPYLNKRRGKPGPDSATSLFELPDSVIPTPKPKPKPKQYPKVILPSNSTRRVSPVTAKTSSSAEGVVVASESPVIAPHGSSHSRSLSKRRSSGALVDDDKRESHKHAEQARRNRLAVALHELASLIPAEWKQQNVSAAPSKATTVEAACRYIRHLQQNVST
Assay: relative binding free energy (BET-seq); higher = weaker binding
Conditions: reference: library average

| Sequence | relative binding free energy |
| --- | --- |
| TCTGGCACGTGTAATA | 0.14 kcal/mol |
| TATAACACGTGTGAGG | 0.06 kcal/mol |
| TGGCCCACGTGTTGGT | -0.04 kcal/mol |
| GAGTTCACGTGTAGCG | 0.35 kcal/mol |
| TGTATCACGTGATGCG | 0.26 kcal/mol |
| TGCTACACGTGTTCGG | 0.12 kcal/mol |
| TGCTGCACGTGAGGGC | 0.04 kcal/mol |
| GTGTTCACGTGCAGCT | 0.31 kcal/mol |
| CGGAGCACGTGGAGCG | -0.07 kcal/mol |
| TATAGCACGTGTGTTT | -0.06 kcal/mol |
| CGGGGCACGTGGTAGA | -0.08 kcal/mol |
| TTGAGCACGTGTATGC | -0.01 kcal/mol |
| CGTGTCACGTGGGTGT | 0.04 kcal/mol |
| ATGTGCACGTGCGGGA | -0.04 kcal/mol |
| TTTGGCACGTGAGGAT | 0.16 kcal/mol |
| TTTGTCACGTGAGTAT | 0.31 kcal/mol |
| AAGGTCACGTGAATTG | 0.19 kcal/mol |
| GGTCTCACGTGTGGAT | 0.24 kcal/mol |
| GAGGGCACGTGCATGG | -0.16 kcal/mol |
| ATTTGCACGTGTGGTG | 0.14 kcal/mol |
| CTGTTCACGTGTAGTG | 0.15 kcal/mol |
| TGGGGCACGTGTGCCT | -0.06 kcal/mol |
| AGGTTCACGTGACTGG | 0.27 kcal/mol |
| GTATTCACGTGTTACT | 0.19 kcal/mol |
| TATTGCACGTGGAGAG | -0.1 kcal/mol |

| Sequence | relative binding free energy |
| --- | --- |
| TTATTCACGTGGTATA | 0.23 kcal/mol |
| TGTGTCACGTGATTGC | -0.02 kcal/mol |
| TCTATCACGTGAGGTT | 0.35 kcal/mol |
| AAGGTCACGTGTTGAT | 0.08 kcal/mol |
| TGTTTCACGTGCATAG | 0.21 kcal/mol |
| GTGACCACGTGCGTTG | 0.03 kcal/mol |
| GGTGGCACGTGGGTAA | -0.18 kcal/mol |
| TTTTACACGTGAGTTC | 0.28 kcal/mol |
| GATGACACGTGTTTTG | 0.01 kcal/mol |
| GGGATCACGTGACGGT | 0.3 kcal/mol |
| GTAAGCACGTGGGGTT | -0.2 kcal/mol |
| TTAATCACGTGTCGGT | 0.13 kcal/mol |
| TGAATCACGTGATAGT | 0.2 kcal/mol |
| GAAATCACGTGTGGGG | 0.23 kcal/mol |
| TATAGCACGTGTTCAT | -0.14 kcal/mol |
| GGCTTCACGTGTTCGG | 0.29 kcal/mol |
| GTGGTCACGTGTTTTA | 0.16 kcal/mol |
| GGACGCACGTGTGTAT | 0.02 kcal/mol |
| ATGGTCACGTGTATCA | 0.17 kcal/mol |
| AGGATCACGTGGTCGT | 0.02 kcal/mol |
| TTCGACACGTGGCAGG | 0.1 kcal/mol |
| GGCTGCACGTGGATAT | 0.14 kcal/mol |
| GTTCTCACGTGAGGAG | 0.33 kcal/mol |
| ACTTGCACGTGTATTG | 0.04 kcal/mol |
| TTAAGCACGTGGCGTT | -0.08 kcal/mol |

| Sequence | relative binding free energy |
| --- | --- |
| CGCGTCACGTGTAGGG | -0.12 kcal/mol |
| TTTAACACGTGTAGAT | 0.31 kcal/mol |
| GTGAACACGTGGTCGG | -0.01 kcal/mol |
| TGTTTCACGTGCACAG | 0.36 kcal/mol |
| GGATTCACGTGTTTGT | 0.41 kcal/mol |
| TTTCTCACGTGATAGG | 0.23 kcal/mol |
| TAATGCACGTGTATGA | 0.05 kcal/mol |
| TGTTACACGTGCGCGG | 0.1 kcal/mol |
| CCGTTCACGTGTGGTG | 0.24 kcal/mol |
| ACATGCACGTGGGGGT | -0.24 kcal/mol |
| TGTAACACGTGATGAT | 0.09 kcal/mol |
| ATCGGCACGTGGGCGT | -0.18 kcal/mol |
| ATATGCACGTGGGCGG | -0.24 kcal/mol |
| ATTATCACGTGGTGGA | 0.01 kcal/mol |
| GATTCCACGTGTGGTT | 0.27 kcal/mol |
| CTGTGCACGTGGGTAC | -0.09 kcal/mol |
| AGTAGCACGTGGGGTT | -0.19 kcal/mol |
| ATGTGCACGTGGTCGA | -0.17 kcal/mol |
| CTTGGCACGTGCGATT | -0.03 kcal/mol |
| GGCAACACGTGGGGGT | -0.02 kcal/mol |
| TGTTTCACGTGTTCCT | 0.28 kcal/mol |
| ATGTACACGTGAAGTT | 0.35 kcal/mol |
| ATAGTCACGTGTAGAA | 0.15 kcal/mol |
